The campaign covered roughly 410,000 compounds. About 6,400 (1.6%) were called active. Inconclusive means that the source gave no clear call. Such entries were picked first, then a sample of the others. Calls come from the whole dose curve; as a rule, active = well fitted inhibition curve with a large enough effect; inconclusive = small, poorly fitted or top-dose-only effect; inactive = no such curve, though single readings can be large or run the other way. No potency is given beside an inconclusive call; the fits are too rough.
Molecular target: Glucagon-like peptide 1 receptor (Homo sapiens) (UniProt P43220)
Experiment: qHTS of GLP-1 Receptor Inverse Agonists (Inhibition Mode); note: nearly all actives have a fitted effect of over 55% in size
Settings: HEK293 GLP-1R CRE-luciferase, luminescence, 24 h, GLP-1R form is constitutively active; series mostly up to 38.3 µM
Outline: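 qHTS in 1536-well format: reporter HEK293 cells expressing constitutive GLP-1R activity in DMEM + 10% Nu serum, 24 hr with compounds at 37 deg C, luminescence read after 12 min with detection reagent.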
Potency is the fitted concentration of half-maximal effect; tags give direction and shape of the fitted curve.

Chain of UniProt P43220 (P43220 whole entry, looked up): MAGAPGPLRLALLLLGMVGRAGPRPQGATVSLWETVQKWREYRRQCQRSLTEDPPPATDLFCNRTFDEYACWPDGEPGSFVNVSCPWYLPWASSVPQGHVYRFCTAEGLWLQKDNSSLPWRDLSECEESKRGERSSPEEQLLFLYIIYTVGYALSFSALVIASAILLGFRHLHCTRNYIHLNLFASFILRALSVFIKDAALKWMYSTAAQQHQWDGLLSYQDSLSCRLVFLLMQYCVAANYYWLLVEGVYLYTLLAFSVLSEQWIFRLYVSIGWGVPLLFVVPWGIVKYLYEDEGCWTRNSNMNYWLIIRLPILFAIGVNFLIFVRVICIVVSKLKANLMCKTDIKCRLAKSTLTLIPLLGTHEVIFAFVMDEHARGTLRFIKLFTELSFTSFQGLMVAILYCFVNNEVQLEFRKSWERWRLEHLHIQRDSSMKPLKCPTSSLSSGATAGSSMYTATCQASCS

SMILES	Potency
O=C(CN1CCN(Cc2ccccc2)CC1)Nc1ccc(Cl)cc1	inconclusive [inhibitor, partial curve, poor fit]
COc1cc(C(=O)Nc2ccc(NC(=O)c3ccc(C(C)(C)C)cc3)cc2)cc(OC)c1OC	inconclusive [inhibitor, full curve, poor fit]
O=C(O)c1cc(S(=O)(=O)N(Cc2ccccc2)c2ccccc2)ccc1Cl	inconclusive [inhibitor, single point]
CC(=O)c1ccc(NC(=S)N2CCC(Cc3ccccc3)CC2)cc1	inconclusive [inhibitor, partial curve, poor fit]
O=C1CCSc2ccc(Cl)cc2N1Cc1cccc(Cl)c1	inconclusive [inhibitor, single point]
CCCCOc1ccc(C(=O)N/C(=C/C=C/c2ccccc2)C(=O)O)cc1	inconclusive [inhibitor, single point]
CN(C)c1cccc(C(=O)N2CCC(c3c[nH]c4ccccc34)(c3c[nH]c4ccccc34)CC2)c1	inconclusive [inhibitor, partial curve, poor fit]
CC(Oc1ccc(Br)cc1)C(=O)NC1CCCCCC1 (centres undefined)	inconclusive [inhibitor, partial curve, poor fit]
COc1cccc(C(=O)N2CCC(C(=O)Nc3cccc(Cl)c3)CC2)c1	inconclusive [inhibitor, single point]
CSc1ccc(Cl)c(C(=O)Nc2ccc(C)cn2)c1	inconclusive [inhibitor, single point]
Cc1cccc(CNC(=O)c2ccc(N3Cc4ccccc4Oc4ncccc43)s2)c1	inactive
COc1nccnc1NS(=O)(=O)c1ccc(NC(=S)NC(=O)/C=C/c2ccccc2)cc1	inactive
FC(F)(F)c1cnc2c(-c3ccccc3)n[nH]c2c1	inconclusive [inhibitor, single point]
C/C(Cl)=C\Cn1c(O)c(N=NC(N)=S)c2ccccc21	inconclusive [inhibitor, partial curve, poor fit]
COc1ccc2c(c1)C(CC(C)=O)N(c1ccc(-c3cccs3)cc1)C(c1ccsc1)=C2 (centres undefined)	inconclusive [inhibitor, full curve, poor fit]
COc1cc(Nc2nc(SCc3ccc(Cl)cc3)nc3ccccc23)cc(OC)c1	inconclusive [inhibitor, single point]
COCc1c(C(=O)NC2CCCCCC2)oc2ccccc12	inconclusive [inhibitor, single point]
O=C1c2oc3ccccc3c(=O)c2C(c2cccc(O)c2)N1c1nncs1 (centres undefined)	inconclusive [inhibitor, single point]
COc1ccc2ccccc2c1CN1CCN(C(=O)c2ccco2)CC1	inconclusive [inhibitor, partial curve, poor fit]
Cc1ccccc1N1CCN(c2ncnc3scc(-c4cccs4)c23)CC1	inconclusive [inhibitor, single point]
C=CCOn1c(-n2nc(C)cc2C)nc2ccccc2c1=O	inactive
NS(=O)(=O)c1ccc2nc(NC(=O)Nc3ccc(F)cc3)sc2c1	inconclusive [inhibitor, single point]

SMILES	Potency
O=C(NCCN1CCCCC1)Nc1cccc(Cl)c1Cl	inconclusive [inhibitor, single point]
Cc1cc(C)c(C#N)c(SCC(O)COc2ccc(Br)cc2)n1 (centres undefined)	inconclusive [inhibitor, single point]
Cc1ccc2c(c1)C(=O)CC(c1ccccc1)S2 (centres undefined)	inconclusive [inhibitor, single point]
O=C(Nc1ccnn1C1CCN(CC2CC=CCC2)CC1)c1ccccc1 (centres undefined)	inconclusive [inhibitor, single point]
Cc1ccc(-c2cc(C(=O)NCCCN3CCCC3)c3ccccc3n2)cc1C	inconclusive [inhibitor, partial curve, poor fit]
CC(C)c1ccc(NC(=O)CCCN2C(=S)NC(C)(C)CC2C)cc1 (centres undefined)	inconclusive [inhibitor, single point]
CSc1ccc(/C=C/C(=O)NC(=O)c2ccccc2O)cc1	inactive
CN(C)C(=O)COc1ccc2ccc(=O)oc2c1	inactive
CC(C)c1cccc(-c2csc(C(O)c3cccc(Cl)c3)n2)c1 (centres undefined)	inconclusive [inhibitor, partial curve, poor fit]
O=S(=O)(NCC1(N2CCOCC2)CCCCC1)c1ccc(F)cc1	inconclusive [inhibitor, single point]
C=CCOc1ccc(/C=N\NC(N)=S)cc1	inconclusive [inhibitor, single point]
CCOc1cc(/C=N/N=C/c2ccc(O)c(OCC)c2)ccc1O	inactive
CCCCn1cnc2c(SCCc3ccccc3)nc(N)nc21	inconclusive [inhibitor, single point]
COc1ccc2c(c1)c(=O)oc1cc(OCC(=O)N3CCCC(C)C3)ccc12 (centres undefined)	inactive
Cc1onc(-c2c(F)cccc2Cl)c1C(=O)Nc1ccccc1N1CCOCC1	inconclusive [inhibitor, partial curve]
Cc1cc(C(=O)N/N=C/c2cccc([N+](=O)[O-])c2)c(C)n1-c1ccccc1	inactive
COC(=O)CCC(=O)NC(=S)Nc1sc(C)c(C)c1C(N)=O	inconclusive [inhibitor, full curve]
CCc1ccc2nc(N(CCN(CC)CC)C(=O)c3cccs3)sc2c1	inconclusive [inhibitor, single point]
CCOC(=O)Cc1csc(NC(=O)CSc2nnnn2-c2ccc(C)c(C)c2)n1	inconclusive [inhibitor, partial curve]
CCC(=O)c1cn(CCOc2ccccc2OC)c2ccccc12	inconclusive [inhibitor, single point]
Clc1ccc(-c2ccc(C=Nc3ccc(N4CCOCC4)cc3)o2)cc1	inconclusive [inhibitor, partial curve]
Nc1ccc(C(=O)N2CCN(S(=O)(=O)c3ccc(Br)cc3)CC2)cc1[N+](=O)[O-]	inconclusive [inhibitor, single point]

SMILES	Potency
O=C(Nc1ccccc1C(=O)OCc1cc(=O)n2c3c(sc2n1)CCCC3)c1ccc(F)cc1	inactive
Cc1ccc(Cc2c(-c3ccc(Cl)cc3)nc3c(C)cc(Br)cn23)cc1	inconclusive [inhibitor, full curve]
C=CCCN(C1CCCC1)S(=O)(=O)c1ccccc1Br	inconclusive [inhibitor, single point]
Cc1cccc(C(C)C)c1NC(=O)Cn1c(=O)oc2cc(S(=O)(=O)N3CCCC3)ccc21	inconclusive [inhibitor, single point]
CCc1nc2c(OCc3cccc(Cl)c3)cccn2c1N(C)C(=O)Nc1ccccc1OC	inconclusive [inhibitor, partial curve, poor fit]
CCc1ccc(NC(=O)CSc2nnc(-c3cccs3)n2CC)cc1	inconclusive [inhibitor, partial curve, poor fit]
CC(NCC(=O)Nc1cc(Cl)cc(Cl)c1)c1ccccc1 (centres undefined)	inconclusive [inhibitor, partial curve, poor fit]
CC1(C)C2CCC1(C)C(OCC[N+](C)(C)CC(=O)OC1CCCCC1)C2 (centres undefined)	inconclusive [inhibitor, partial curve, poor fit]
CC1(C)CC(NC(=O)C(C)(C)Oc2ccc(Cl)cc2)CC(C)(C)N1	inconclusive [inhibitor, partial curve, poor fit]
CCn1c(C)c(C)c2cc(C(=O)NCCCN3CCCCCC3)ccc21	inconclusive [inhibitor, partial curve, poor fit]
Cc1[nH]c2ccccc2c1-c1csc(NC(=O)CSCCO)n1	inconclusive [inhibitor, partial curve, poor fit]
Cc1cc(NC(=O)C2(c3ccccc3)CCCC2)no1	inconclusive [inhibitor, partial curve]
CCc1ccccc1N(CC)C(=O)c1c(C)oc2ncn(C)c(=O)c12	inactive
COc1cc(C)ccc1OCCCOc1ccccc1Cl	inconclusive [inhibitor, single point]
CCN(C1CCCCC1)S(=O)(=O)c1cc(C)ccc1OC	inconclusive [inhibitor, partial curve, poor fit]
COc1cccc(N/C(SCc2ccccc2F)=C(/C#N)C(=O)NCc2cccs2)c1	active: 5.01 µM
CCc1ccccc1NS(=O)(=O)c1ccc2[nH]cc(C(=O)N(CC(C)C)CC(C)C)c(=O)c2c1	inconclusive [inhibitor, single point]
CC1CCCC(NC(=O)CNC(=S)N(Cc2ccccc2)Cc2cccs2)C1C (centres undefined)	inconclusive [inhibitor, partial curve, poor fit]
CSc1nc2nccc(/C=C\c3ccccc3)n2n1	inconclusive [inhibitor, single point]
O=C(CCCCl)NC(=S)Nc1cc(C(F)(F)F)ccc1N1CCOCC1	inconclusive [inhibitor, single point]

From PubChem BioAssay AID624417 (National Center for Advancing Translational Sciences (NCATS), 2012)
